First the molecules themselves.
B1: GAUGGCA (DNA:RNA)
RNA: GGGAGACCGGAAUUCAGAUUGUCCGAUGGCAUUAAAUCCCGUCGUAGCCACCA
DNA 1: CAATCTGAATTCCGGTCTCCC
DNA 2: TGGTGGCTACGACGGGATT
B2: AUGGCGA (DNA:RNA)
RNA: B1 RNA with G25A, A26U, U27G, G29C, C30G
DNA 1: CAATCTGAATTCCGGTCTCCC
DNA 2: TGGTGGCTACGACGGGATT
B3: UGGCUGG (DNA:RNA)
RNA: GGGAGACCGGAAUUCAGAUUGUCCUGGCUGGUUAAAUCCCGUCGUAGCCACCA
DNA 1: CAATCTGAATTCCGGTCTCCC
DNA 2: TGGTGGCTACGACGGGATT
B4: UGAGACG (DNA:RNA)
RNA: B3 RNA with G27A, C28G, U29A, G30C
DNA 1: CAATCTGAATTCCGGTCTCCC
DNA 2: TGGTGGCTACGACGGGATT
B5: UGUACCC (DNA:RNA)
RNA: B1 RNA with G25U, A26G, G28A, G29C, A31C
DNA 1: CAATCTGAATTCCGGTCTCCC
DNA 2: TGGTGGCTACGACGGGATT
B6: AGUUAAU (DNA:RNA)
RNA: B1 RNA with G25A, A26G, G28U, G29A, C30A, A31U
DNA 1: CAATCTGAATTCCGGTCTCCC
DNA 2: TGGTGGCTACGACGGGATT
B7: UUGUAAG (DNA:RNA)
RNA: B3 RNA with G26U, C28U, U29A, G30A
DNA 1: CAATCTGAATTCCGGTCTCCC
DNA 2: TGGTGGCTACGACGGGATT
B8: UUCGAUA (DNA:RNA)
RNA: B1 RNA with G25U, A26U, U27C, G29A, C30U
DNA 1: CAATCTGAATTCCGGTCTCCC
DNA 2: TGGTGGCTACGACGGGATT
B9: UCGGACG (DNA:RNA)
RNA: B3 RNA with G26C, C28G, U29A, G30C
DNA 1: CAATCTGAATTCCGGTCTCCC
DNA 2: TGGTGGCTACGACGGGATT

Changes are numbered by the printed parent chain; changes in the protein carry UniProt numbers. Some of the results follow.

This experiment concerns the target T1, RBFOX1 RRM RbFoxmut (Fox-RRM*) (Homo sapiens, UniProt Q9NWB1 109-208, R118D;E147R;N151S;E152T).
T1 sequence: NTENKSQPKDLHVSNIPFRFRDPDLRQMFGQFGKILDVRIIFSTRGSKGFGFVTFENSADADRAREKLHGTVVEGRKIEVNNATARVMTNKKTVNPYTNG
Nature of the experiment: EMSA; HiTS-Eq, 1 nM pool, 10 min; buffer printed only for the single-RNA assays: 10 mM Tris pH 7.5, 150 mM NaCl, 3.4 mM EDTA, 0.001% NP-40, 30 C. The conditions noted are these: tags: His6 N-terminal (pET28a); label: 5' 32P. A digest of the protocol:
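Purified RbFox RRM, wild type or mutant, was incubated for 10 min in 50 µL with 1 nM of a 5′-radiolabelled RNA pool carrying 7 randomized nucleotides, whose flanks were annealed to DNA oligonucleotides, over a series of increasing protein concentrations. Unbound RNA was resolved on 8% native PAGE, cut out, reverse-transcribed, barcoded by PCR and sequenced on an Illumina HiSeq 2500. Relative association constants were derived from changes in read counts for each RNA species versus the control reaction and normalised to the cognate motif.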
(Mobility shift assays separate free from complexed probe on a gel.)
Take B1: the binding signal is 0.123 KA relative to UGCAUGU.

Turning to B2, the binding signal is 0.107 KA relative to UGCAUGU.

As to B3, the binding signal was 0.217 KA relative to UGCAUGU.

With B4, the binding signal is 0.118 KA relative to UGCAUGU.

Regarding B5, the binding signal was 0.0834 KA relative to UGCAUGU.

Consider B6, for which the binding signal is 0.0918 KA relative to UGCAUGU.

On to B7, for which the binding signal was 0.141 KA relative to UGCAUGU.

As for B8, the binding signal was 0.0965 KA relative to UGCAUGU.

As to B9, the binding signal is 0.0752 KA relative to UGCAUGU.

The record behind these values is article PMC9911399, “Two distinct binding modes provide the RNA-binding protein RbFox with extraordinary sequence specificity”.
